Data taken from paper PMC6212790.
The list shows a part of the results. At the low end of the ranking, values are background and their order means little.

Biological target: T1, GST-Rok-C97-191 (UniProt O34857)
T1 sequence: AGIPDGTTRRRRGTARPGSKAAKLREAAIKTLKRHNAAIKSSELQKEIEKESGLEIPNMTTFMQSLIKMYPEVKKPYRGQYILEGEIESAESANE
Test: protein binding microarray;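 note: rank score from −0.5 (least bound) to 0.5 (best bound)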
Details: Rok is a gene silencer of Bacillus subtilis; high values mean tight binding; most listed sequences are background and not binding sites; double strand, one strand shown

Sequence	binding signal [E-score]
ACACGAAG	-0.182
CTAAACGC	0.0606
CTAATTTC	0.272
ACCCTGTC	-0.134
CTACATTC	0.0945
GAGCTAAC	-0.107
CTTTGCGA	-0.146
GATGCACC	-0.0545
AAAGGATC	-0.12
AGATCCGG	0.0519
AGCTGCTA	-0.0493
AAACAAGT	-0.0443
CGCCTAAC	-0.238
AAAAAATC	-0.0656
ACATCAGC	0.0927
AGGAAACA	-0.0302
CAGATGAG	-0.23
CGATCGCG	0.0105
GAGGCAAC	-0.0906
CGCCGCGC	-0.215
CGGAGAGC	-0.239
ATAAAAGG	0.077
GCGACGTA	0.0763
ACTGGAGG	-0.26
AGCTGTAT	0.164

Sequence	binding signal [E-score]
CGTGAAGA	-0.0889
GTCGTTTA	0.12
GCCGTAGC	-0.0991
ATCGCCGG	-0.0173
CCGCAACA	0.0431
TATCTCCA	0.177
CCAATCCC	-0.245
CATGGGGC	-0.233
TGACGTCA	0.00314
GAATAGGA	0.0339
ACGAAGGA	0.088
ACTAGCGC	0.131
ACTATTTG	0.22
TCTTTGCA	0.123
CTGGAAAG	-0.0873
CCCCGAGA	-0.324
GCTTCCGA	-0.0867
GTTAATTA	0.19
GATGCTGC	0.0556
ATTTACCC	0.222
ACGACACA	-0.0337
ACAAAACG	-0.11
AAAGTATT	0.191
CTCCGCAC	0.0348
GTATCCTA	0.14

Sequence	binding signal [E-score]
ACTCCCCT	-0.344
ACCAGGAC	-0.0513
AACGGGGA	-0.0679
ACCCGGTG	-0.277
ACTCGGTC	-0.0494
GACATGAA	0.133
AACTTTTC	0.037
ACAAAGAC	0.0962
CGTGCAGA	-0.162
ACAACAGG	0.0735
CCACAAAG	-0.13
AAACGCTT	-0.107
CACGTGGA	-0.208
CGAGATGA	-0.0477
AACTTATG	0.13
GACACTTA	0.00132
CGCGCACA	0.0288
AGCCACAG	-0.278
GCCGTGCA	-0.0765
CTTTGTCA	-0.133
CAGGTCCC	-0.219
AGGACCAC	-0.0581
AGTCCTTA	0.00187
GGCTCCCA	-0.206
GGTAAGAA	0.177

Sequence	binding signal [E-score]
CGAACATA	0.0707
ACTCATAC	0.204
ATGCTTCA	-0.123
AACGGAAG	-0.209
AGAAAAGG	-0.204
GCTGAAGC	-0.221
ACTGCTGG	-0.148
GGTGGACA	-0.307
TGCCCAAA	0.00809
CACCTAGG	-0.155
GCGTACAC	0.138
GCTTACCC	-0.0373
ATAGTCAT	-0.0581
GGCCCGAC	-0.259
GACCGTAA	0.112
CCCGTCGG	-0.173
ACACGTAG	-0.0318
ACATCTTG	-0.0462
CCATTGAA	-0.106
GAAAGCAC	-0.00694
AAATACCT	0.271
ATCTGACA	-0.026
ATTCCCCG	-0.136
TCGCCTAA	0.0852
AGTTCCTA	0.15

Sequence	binding signal [E-score]
GGAGTAAC	-0.109
AAGACATA	0.00214
CGGAGCAA	0.0518
AAGCGATC	-0.0616
CGAGTACG	0.0532
ATCAAAAT	0.231
CCCCTTGA	-0.25
CTACGTTA	0.0846
AAGATTCC	-0.0554
ATGCAAAC	-0.0558
CCAAGACG	-0.139
ACAACAGA	-0.109
ATAGTACC	0.254
GCCTTACA	-0.0752
CGTTTAGA	-0.129
AATGAGCC	-0.0629
CCTCTACA	0.104
ACTATACT	0.0926
CACGAGTA	-0.0408
CTGAGCTC	-0.225
GAATTCTA	0.363
GTGATGGA	-0.179
AACTACAC	0.33
ACGTCTAA	-0.00625
GCACCAAC	-0.132

Sequence	binding signal [E-score]
CACCTGGG	-0.262
GCGAGGTA	0.108
CGCGGTGA	-0.228
CCCGGTTC	-0.31
AACTTAGC	0.193
ACTTGCTC	-0.054
CCCGACAC	-0.163
TCAACCCA	-0.185
CATCTCTA	0.0692
GTTCGTCA	0.0262
CCATTTAC	0.0206
ACAATCCC	0.162
AGAACAAC	-0.114
CAGCCATC	-0.13
GTTTTTAA	0.0501
ACATTGCT	0.138
ATGCCCTC	-0.36
AATCGCCT	-0.178
AAATGGAC	-0.102
GGCGTGGA	-0.266
AGCAATTG	0.332
GCACCCAA	-0.0642
ATGTCACC	0.17
ACGAAGGG	-0.239
AGCATGTG	-0.0216

Sequence	binding signal [E-score]
TACCTCCA	0.129
GTAGCTCA	-0.00637
GTTGCTCA	0.0269
GAGCCTCA	-0.242
CATTGCGA	0.108
CTGCAATC	-0.107
CACACCGG	-0.289
AACCCAAA	-0.0379
CATCCGAC	-0.175
AACCAGCG	-0.0612
AACCCGCG	-0.0978
GGTATTAA	0.189
CGTAGAAG	0.0648
AGATATGC	0.207
ACGTTCTA	0.317
CAGGTGGC	-0.127
CCTCCCGC	-0.143
GCACATGC	-0.0509
GGACTACA	0.0796
CCTTCGGC	-0.2
GTAGGACA	0.0745
ACGTGTCT	0.00783
TGAGCTCA	-0.21
CTGGATAA	-0.00344
AAGGCCCT	-0.355

Sequence	binding signal [E-score]
ATGACTCA	-0.107
GTGACTGA	-0.135
ACTTAGCC	-0.029
AGGTTAAC	0.0732
CACTTAAA	-0.0399
ACGCACAC	-0.0939
CAAGCCGA	-0.061
AGCTGCGG	-0.136
GAATTTAA	0.124
ATGAGAAA	0.117
GTTGGTCA	-0.0582
CAATGGTA	0.269
ACAATATG	0.146
ATGCGTGG	-0.181
AGCGATCA	0.0712
AATAGGCA	-0.25
ATAGCGGG	-0.0312
ATAGGGTG	0.109
GGCGGTAA	0.0703
ATATAACG	0.271
GCTGAGAC	-0.135
GGTTGTAC	0.145
GAGGAATA	0.0153
AGAAGGTG	-0.0446
ATGAAACG	-0.0262

Sequence	binding signal [E-score]
AAGTGCAT	-0.0284
CACAGCGG	0.0839
CATCCTAC	0.18
AACGCAGC	0.0817
AATAAGAA	0.162
GCGACCAA	-0.012
ACGTCAAC	0.00643
AGCGAACG	-0.215
GGATCCGA	-0.011
AAGCTGTG	-0.0915
AATCTGCG	0.0952
ATTTAGGA	0.0135
AAGTACTA	0.385
AGCGAAAT	0.119
GTATCAAA	0.0823
ATAGTAGA	0.355
AAGCCGCA	-0.221
GACGGCCC	-0.0925
CCGGTTAC	-0.037
